The record followed here is ChEMBL document CHEMBL4888484, “Replenishing the malaria drug discovery pipeline: Screening and hit evaluation of the MMV Hit Generation Library 1 (HGL1) against asexual blood stage Plasmodium falciparum ,using a nano luciferase reporter read-out” (2022).

Out of some 150,000 compounds screened, about 540 (0.36%) showed an effect of 50% or more. The list shows a part of the results.

The term % Inhibition denotes the drop in the measured response relative to a control, in per cent.

The test deals with Plasmodium falciparum. In words: Primary screen in NF54 nanoGlo assay, in single point, at 2uM, 72h; a lower Z score goes with more inhibition. The format is functional, Erythrocyte. The conditions noted are these: timepoint 72 hour.
Take `Cc1nc(N(C)C)ncc1-c1nc(-c2ccco2)nn1CCO`: the “% Inhibition” value is recorded as -5% and the Z score is recorded as 0.6.
In the case of `CC(C)n1ncc2c(C(=O)N(C)C3CCCCC3)cc(-c3ccc4c(c3)OCCO4)nc21`, the “% Inhibition” value is -7% and the Z score came out at 0.6.
For `O=C(Cn1cnc2cccc(F)c2c1=O)N1CCN(c2ncccn2)CC1` the same measures were -6% and 0.65.
Regarding `COc1ccccc1CN1CCC(CN(CC(C)C)C(=O)c2nonc2C)CC1`, the “% Inhibition” value came to 8% and the Z score was -1.11.
The matching figures for `O=c1c2ccccc2ncn1Cc1nc([C@H]2CCOC2)no1`: -5% and 0.83.
Turning to `CCCN(C[C@H]1CCCCO1)C(=O)Nc1ccc(F)c(N2CCNC2=O)c1C`, the “% Inhibition” value was -3% and the Z score came out at 0.62.
As for `Cc1ccc(CN2CCn3nnc(CCC(=O)N4CCOCC4)c3C2)s1`, the “% Inhibition” value is recorded as -7% and the Z score turned out to be 1.39.
For `CCOC(=O)C[C@H](c1cccc(Cl)c1)c1nn[nH]n1` the same measures were -10% and 1.4.
Take `O=C(c1cn[nH]c1)N1CCC([C@H]2c3[nH]cnc3CCN2Cc2cccnc2)CC1`: the “% Inhibition” value is -7% and the Z score is recorded as 1.02.
In the case of `COc1cc(Cl)c(NC(=O)[C@H]2C[C@H](OC)CN2S(C)(=O)=O)cc1C`, the “% Inhibition” value worked out at 3% and the Z score is listed as -0.34.
As for `COC[C@@]1(C)CCN(C(=O)CCc2cncs2)C1`, the “% Inhibition” value was 0% and the Z score is on record as 0.04.
Regarding `CCn1cc(CNc2[nH]nc(C)c2Br)cn1`, the “% Inhibition” value worked out at 2% and the Z score is -0.32.
Take `CCCCNC(=O)C(C)N1CCCC(C(=O)O)C1` (stereo not drawn): the “% Inhibition” value is recorded as -18% and the Z score stood at 2.49.
On to `O=C(c1ccc2c(c1)OCCCO2)N1CCN(S(=O)(=O)c2ccc(Cl)cc2)CC1`, for which the “% Inhibition” value is given as -8% and the Z score came out at 0.8.
Regarding `O[C@H]1CCN(c2ncc(C(F)(F)F)cc2Cl)C1`, the “% Inhibition” value amounted to 6% and the Z score is given as -1.01.
Consider `C[C@@H](Cn1cncn1)NS(=O)(=O)c1ccc2c(c1)C(=O)N(C)C2=O`, for which the “% Inhibition” value was -2% and the Z score amounted to 0.37.
Regarding `COC(=O)c1c(NC(C)=O)c2cc(N[C@@H](C)CC(C)(C)OC)cnc2n1CCc1c[nH]c2ccccc12`, the “% Inhibition” value turned out to be 5% and the Z score is -0.71.
`Cc1nc(C(C)C)sc1C(=O)N1CCNC(=O)C1`: the “% Inhibition” value is listed as -11% and the Z score is on record as 1.78.
`CC(NC(=O)c1cccs1)C(c1cccs1)N1CCN(c2ccccc2)CC1` (stereo not drawn): the “% Inhibition” value is 6% and the Z score is given as -0.95.
Turning to `O=S(=O)(c1cccc(C(F)(F)F)c1)N1CCc2nc(-c3ccc(F)cc3)ncc2C1`, the “% Inhibition” value is listed as 10% and the Z score is listed as -1.5.
Turning to `COc1ccc(N2C(=O)C3C4C=CC(C4=C4CCCCC4)C3C2=O)cc1` (stereo not drawn), the “% Inhibition” value is on record as -2% and the Z score was determined as 0.23.
Turning to `CN(C)Cc1ccc(NC(=O)Cc2ccn[nH]2)c(F)c1`, the “% Inhibition” value is reported as -13% and the Z score was determined as 1.81.
Consider `Cc1csc([C@H](C)N(C)C[C@H]2CC[C@H](O)CC2)n1`, for which the “% Inhibition” value is -3% and the Z score amounted to 0.41.
For `CCCCc1nc(CN(CCC)Cc2cccnc2)c[nH]1`, the “% Inhibition” value is on record as -11% and the Z score was 2.04.
For `Cc1n[nH]c(C)c1CCC(=O)N1C[C@@H](CN2C[C@@H](C)O[C@@H](C)C2)[C@@H](CO)C1`, the “% Inhibition” value is -9% and the Z score worked out at 1.1.
With `O=C(CCc1ccc(F)cc1F)N1C[C@H](O)[C@@H](F)C1`, the “% Inhibition” value was -8% and the Z score came to 1.5.
Consider `O=C(c1cncc(Cl)c1)N1CC[C@H](Nc2ncccn2)[C@@H](O)C1`, for which the “% Inhibition” value was 2% and the Z score was -0.27.
Take `Cc1cc(C)cc(S(=O)(=O)Nc2cnc(N3CCCCCCC3)c(C(=O)O)c2)c1`: the “% Inhibition” value is -13% and the Z score stood at 1.29.
For `CCC(=O)N1CCC(NC(=O)NC2c3cccc(F)c3CCC2C)C1` (stereo not drawn) the same measures were 2% and -0.24.
On to `CCC(NC(=O)C(CC(C)C)n1ccnc1)C(O)C(C)C` (stereo not drawn), for which the “% Inhibition” value is given as 19% and the Z score is -2.43.
For `O=C(NCC1(CO)CC1)c1sccc1Cl` the same measures were 0% and 0.01.
Turning to `COCCO[C@H]1CCC12CCN(S(=O)(=O)c1c(C)noc1C)CC2`, the “% Inhibition” value amounted to 3% and the Z score is recorded as -0.36.
For `Cc1nn(-c2ccc(F)cc2)c(C)c1S(=O)(=O)N1CCC(C(=O)NC[C@H]2CCCO2)CC1`, the “% Inhibition” value amounted to 7% and the Z score was -1.02.
The matching figures for `COCCN(Cc1nnc(C)o1)CC(F)(F)F`: -4% and 0.65.
With `O=C1NCC(=O)N2CCN(CC(c3ccccc3)c3ccccc3)C[C@@H]12`, the “% Inhibition” value is on record as -6% and the Z score was found to be 0.99.
Turning to `COC(=O)[C@@H]1CC(F)(F)CN1C(=O)OC(C)(C)C`, the “% Inhibition” value came out at 11% and the Z score is on record as -1.25.
For `Cc1noc(C)c1CN(C)C1CCCCC1N(C)Cc1c(C)noc1C` (stereo not drawn) the same measures were -7% and 1.24.
Consider `O=C(c1ccc(Cl)cc1)c1c[nH]c2c(F)cc(F)cc2c1=O`, for which the “% Inhibition” value is given as 36% and the Z score is -4.88.
For the molecule `CC(C)C(NC1CC(C)N(C2CC2)C1)c1ccccc1` (stereo not drawn), the “% Inhibition” value is given as -4% and the Z score was determined as 0.44.
On to `Cc1noc(C2(NC(=O)Cc3ccccc3C)CCCCC2)n1`, for which the “% Inhibition” value is -12% and the Z score worked out at 1.22.
Take `O=C(O)[C@@H]1CCCCN1S(=O)(=O)CCc1cccc(Cl)c1`: the “% Inhibition” value is reported as -14% and the Z score is on record as 1.68.
On to `Cc1nc(O)cc(CNS(=O)(=O)c2cccc(C(=O)NC3CCC3)c2)n1`, for which the “% Inhibition” value is listed as -3% and the Z score was found to be 0.41.
For `COc1cccc(C2C(NC(C)=O)CCN2C2CC2)c1` (stereo not drawn) the same measures were 12% and -1.21.
On to `O=C(Cc1ccsc1)NC1(c2cccs2)CCOCC1`, for which the “% Inhibition” value is 1% and the Z score is reported as -0.13.
In the case of `CC(C)C[C@H]1C(=O)NCCCN1C(=O)c1ccn(C(C)C)n1`, the “% Inhibition” value is recorded as -1% and the Z score turned out to be 0.18.
The matching figures for `CC(C)(C)[C@H]1CCCN(C(=O)c2cncnc2)CC1`: -10% and 1.91.
Turning to `FC(F)n1ccnc1CN1CCN([C@H]2CCCCc3ccccc32)CC1`, the “% Inhibition” value came out at 6% and the Z score is -0.74.
Take `O=C(O)[C@H](Cc1ccccn1)c1ccc(Cl)cc1`: the “% Inhibition” value is recorded as -1% and the Z score came to 0.17.
Turning to `Cc1ccc(Cl)cc1S(=O)(=O)N1CCC[C@H](c2ccn(C)n2)C1`, the “% Inhibition” value was -1% and the Z score is on record as 0.15.
Turning to `COc1cc(C(=O)N2CCC[C@@H](N)C2)cc(Cl)c1OCCC(C)C`, the “% Inhibition” value is reported as -9% and the Z score is 1.45.
As for `CCCc1cc(NCc2cnn(C)c2)n2ncnc2n1`, the “% Inhibition” value is 0% and the Z score is reported as -0.06.
`CC(C)n1ncc2c1[C@@H](NCc1cccnc1N(C)C)CCC2`: the “% Inhibition” value is -9% and the Z score is recorded as 1.11.
The matching figures for `CC1CN(C)CCC1N(C)C(=O)CCOCC(F)(F)F` (stereo not drawn): -5% and 0.62.
For `COc1ccc(NC(=O)CC[C@@H]2CN(Cc3ccccc3)CC[C@@H]2N2CCOCC2)cc1`, the “% Inhibition” value is -3% and the Z score came out at 0.66.
